Consider 57 sequences from the supplement of paper PMC11417369.

± gives the standard deviation of the averaged measurements. This is one part of the list.

The test system of the experiment is PfAP2-G AP2 domain (GST-tagged). In words: gcPBM binding intensity (ln(normalized median fluorescence intensity)); higher = stronger DNA binding. In a few lines: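 GST-tagged P. falciparum DNA-binding domains, expressed in E. coli (about 25 μg on average), were applied for 1 h to an Agilent 4 × 180k array of primer-extended double-stranded 36-bp intergenic genomic probes plus negative controls. The binding buffer was 1× PBS with 1% milk, 0.2 mg/ml BSA, 0.5% salmon testes DNA and 0.03% Triton X-100. Bound protein was detected with Alexa488 anti-GST antibody and scanned at 488 nm. Binding intensity is the highest Masliner-normalised natural-log median intensity across replicate spots of either probe orientation.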
Regarding “ATAATATAATTTTGCAGTACCCAAAAAACAAAATAA [XGTACX_site4827]”, the “gcPBM binding intensity (ln)” value worked out at 11.2 ± 0.76.
For “TTATTGAAAAAAGAACAAAAAAAAAAAGAAAAATTA [XGTACX_negctrl_site438]” the value was 9.72 ± 0.057.
Next, “TATAAACATTATAAATGTACAAATATATATATATAT [XGTACX_site3218]”: 10.5 ± 0.3.
For “GAAAGAATAAAATTTACACACATATATATATACATA [CACACA_site2250]” the value was 9.745 ± 0.035; for “ATATATATATATATATGTACTTATTTGAATACTAAA [XGTACX_site2330]”, 11.2 ± 0.79.
Turning to “AAAATAAGAAATAGATGTACTTATAAATAAATACAA [XGTACX_site4441]”, the “gcPBM binding intensity (ln)” value is 11.4 ± 0.65.
On to “GGCATAAATATATGCACACACAAAAAAAAAAAAAAA [CACACA_site59]”, for which the “gcPBM binding intensity (ln)” value amounted to 10 ± 0.65.
Next, “TTTTTTTTTTTAAAAAGTACACAATTAATTAATATA [XGTACX_site8494]”: 11.5 ± 1.1; “ATATTGTTTTATATAGAACACACATAAAAATATATA [CACACA_site8314]”: 10.1 ± 0.25.
Next, “GTTAATAAAAATATATGTACATAATTATTATGAAAA [XGTACX_site3030]”: 11.4 ± 0.78.
For “TATATATTTTTTAAACCACACACAATATAGAGTATA [CACACA_site8106]” the value was 10.3 ± 0.17; for “AATATTATTTAGGAGCGTACGTTTTATTTACATATT [XGTACX_site5188]”, 11.2 ± 0.62.
Turning to “TCATTATATCATGGTAGTACTCATTAATAATACGTA [XGTACX_site8701]”, the “gcPBM binding intensity (ln)” value was 11.5 ± 0.86.
Next, “AACCACATACATATAACACACATATACAATATATAT [CACACA_site8607]”: 10.1 ± 0.19; “GGACATTTTTATAAGGTGCACGGTTTTGATATTACT [GTGCAC_site9892]”: 10.6 ± 0.28; “ATAATGATATATAGTACACACAAAAATGGAAGTAAA [CACACA_site7541]”: 11.2 ± 0.78.
For “TCATTCATAAAAATAACACACAAAAAAAAAAAAAAA [CACACA_site1800]” the value was 9.7 ± 0.47; for “AAATTATATTATTGAACACACGTTTGGTAATGTTTT [CACACA_site5469]”, 10.04 ± 0.085; for “AAATATAAGAAAAAGGTGCTTTTTTTTTTTTTTTTT [GTGCAC_site9700]”, 10.5 ± 0.19.
For AGGGAAAAAAAAAAAGTGCATTTGTATTAAATGAAT the value was 9.985 ± 0.021.
Turning to “GTAAACAAAATATTTTGTACATATTTTATATTATTT [XGTACX_site7837]”, the “gcPBM binding intensity (ln)” value worked out at 10.9 ± 0.54.
“TGACTATGTATATTTAGTACATAAAATCAATAATAT [XGTACX_site4082]”: the “gcPBM binding intensity (ln)” value was 10.9 ± 0.71.
For “AAGGGTTGCCTGTGTAGTACATATATATATATATAT [XGTACX_site8555]” the value was 11.5 ± 0.91; for “CTCTTGTTTCCATATAGTACGTAATAATATATACAA [XGTACX_site2428]”, 11.4 ± 0.75; for “TTTTCAATTAAAAAAAAATTATATTTTATTATTACA [CACACA_negctrl_site142]”, 9.41 ± 0.33.
On to “AAGATGGTAAAGAATTGTACGCGCATATATATATTT [XGTACX_site3904]”, for which the “gcPBM binding intensity (ln)” value came to 11.6 ± 0.83.
Turning to “TATATATATATATGATGTACACATTTTATTATTTGT [XGTACX_site1147]”, the “gcPBM binding intensity (ln)” value is 11.5 ± 0.95.
Next, “GTTAAAAGAAAAATATGTACATAAAAAAATTAGAAA [XGTACX_site578]”: 11.5 ± 0.81; “AATTTGATAATATCATGTACATGAAAGAATTCATGA [XGTACX_site8463]”: 10.8 ± 0.4; “AATAAAAAAATATGAAATTATGACATATAGCATTTG [TGCATGCA_negctrl_site160]”: 9.58 ± 0.11.
For “AAAAAATAAAAAGATACACACATATGTATAATATAC [CACACA_site1496]” the value was 10.125 ± 0.007.
In the case of “GTGTATATTATTTTATCACACATGTACATATGTTAA [CACACA_site5473]”, the “gcPBM binding intensity (ln)” value came out at 11.2 ± 0.83.
For “TACATAAATTAAAACACACACACACCCAAAAAAAAA [CACACA_site2261]” the value was 10.5 ± 0.42.
Next, “TGTAGTCTGGAGAAGAGTACATAGTATCTGGTAGCT [XGTACX_site2029]”: 11.2 ± 0.68; “GAATTGTATTGGTACTGTACAATTAAATTAAAAAAA [XGTACX_site1891]”: 11.2 ± 0.93.
Next, “AAAAAAAAAAAACACACACACACACCCATATATAAA [CACACA_site1170]”: 10 ± 0.11.
With “ACATAAAATTATTATACATGCATATTTAATTTTTTC [TGCATGCA_site353]”, the “gcPBM binding intensity (ln)” value turned out to be 9.785 ± 0.049.
For “GGAGCACCCAGACACACACACACATATATATATATA [CACACA_site336]” the value was 10.4 ± 0.44.
Next, “TATATCTACTACACACGTACACAAAATAAGATACCT [XGTACX_site7886]”: 11.5 ± 0.97; TTTTTTGTTAAGTTGGTGCAAACAATAGTTATTGAC: 10.1 ± 0.26; “TATTATATTTTTATTTGTACGTAAAATTAAGTTATG [XGTACX_site2405]”: 11.4 ± 0.86.
Next, “AAAAATATAAACAAACGTACGAAGTGATGATATATT [XGTACX_site2242]”: 10.6 ± 0.071; “TATTAATGATAAGAATATTTTATATGATACATGCAT [CACACA_negctrl_site923]”: 9.825 ± 0.007; “TATGTATTATATATTTGTACTCATTCTAATTCCTTC [XGTACX_site7294]”: 11.2 ± 0.67.
For “TATAAATAAATATGTACACACATATATACCTTTCAT [CACACA_site7291]”, the “gcPBM binding intensity (ln)” value is 11.4 ± 0.86.
With “AATAATTAACAAAAAAAAAAAAAAAAAAAAAAAAAA [GTGCAC_negctrl_site255]”, the “gcPBM binding intensity (ln)” value was found to be 9.53 ± 0.33.
In the case of “GGAAAGACAGTTCACAGTACCCAGGAAATCTGCGGA [XGTACX_site4933]”, the “gcPBM binding intensity (ln)” value was found to be 10.8 ± 0.57.
Next, “ACATATATGTATAATACACACACTAATATATAATTG [CACACA_site1966]”: 10.16 ± 0.049; “ATTTAAAAAAAAACGGAATTTTTTTTTTTTTTAAAG [XGTACX_negctrl_site91]”: 9.615 ± 0.021; “ATATTCATATATTTACGTACATACATTTATATATTT [XGTACX_site7644]”: 11.4 ± 0.79.
As for “TATATTAATGTTCATAGTACGTATGATTAGGAAAAA [XGTACX_site616]”, the “gcPBM binding intensity (ln)” value was 11.1 ± 0.69.
For “AATTTATAAAAGAAGAGGACACATATAAATATAAAT [XGTACX_site59]” the value was 11 ± 0.81; for “TTTAGTTTTTATATAGCACACATATTGTGATTATGT [CACACA_site8316]”, 10.1 ± 0.071.
For “TGTATATCACATGAGAGGTGGAGATGGGGATAAATA [CACACA_negctrl_site1148]” the value was 9.92 ± 0.099.
In the case of “ATACAATTCTTACATTGTACTTTTTTTTTTTATCAC [XGTACX_site6327]”, the “gcPBM binding intensity (ln)” value came to 11.6 ± 0.99.
Next, “TACAACCTTTAGACAAGTACAAGAATTATATGTGGC [XGTACX_site4581]”: 11 ± 0.59; “ACAAAATATATAGACACACAAACACAAATATGTTTT [CACACA_site3016]”: 10 ± 0.19.
